In the supplement of paper PMC7826260:
Some of the results follow. One pool of 16,384 single-stranded DNAs met each Rep nickase domain in vitro (1 h at 37 °C, 3 µM enzyme); the outer parts of the 90-letter strands are left off. Uncut reads are compared with the no-enzyme pool on a log2 scale; strong cutting gives strongly negative numbers. There is no active / inactive call. Counts are relative to all reads; values above 0 arise when much of the pool is cut.

What follows are sequences tested on T1, Rep nickase domain of Muscovy duck circovirus (assay: uncleaved DNA left, log2 of reads against the no-enzyme library (log2 ratio); higher = less cleavage (more negative = more Rep cleavage of the k-mer); sequences stand for … in CTCGTCCG…ACCGGAGA).
T1 sequence (protein, residues 1-111, tag omitted): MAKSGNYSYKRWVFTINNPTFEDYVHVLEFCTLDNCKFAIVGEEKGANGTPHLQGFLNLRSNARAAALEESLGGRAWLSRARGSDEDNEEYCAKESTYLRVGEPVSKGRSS
Procedure: (§1)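 A pool of 90-nt single-stranded DNAs with seven random bases just before the constant AC of the nick site (name = the seven bases) was cut by 3 µM recombinant His6-SUMO-tagged Rep nickase domain (300 nM DNA, 50 mM HEPES pH 8.0, 50 mM NaCl, 1 mM MnCl2, 1 h, 37 °C, three replicates). Uncut DNA was amplified and sequenced.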
With GCCGAGC the “uncleaved DNA left (log2)” value was 0.048. With GGCAAGC the “uncleaved DNA left (log2)” value was 0.0479. In the case of AGGTTTT, the “uncleaved DNA left (log2)” value is reported as -1.57. With TTGGGAC the “uncleaved DNA left (log2)” value was -0.0498. For CCGGCAT, the “uncleaved DNA left (log2)” value was 0.141. TTAAGAT was tested, and the “uncleaved DNA left (log2)” value was 0.101. For CACTGGC, the “uncleaved DNA left (log2)” value was 0.0946. In the case of ATCCGAC, the “uncleaved DNA left (log2)” value is reported as 0.031. In the case of CTCTCCA, the “uncleaved DNA left (log2)” value is reported as -0.0692. CGTGTAC was tested, and the “uncleaved DNA left (log2)” value was 0.0485. For TACCTAG, the “uncleaved DNA left (log2)” value was 0.123. With CCTACGG the “uncleaved DNA left (log2)” value was -0.0519. For AAACGGC, the “uncleaved DNA left (log2)” value was 0.0911. With CCGCTGG the “uncleaved DNA left (log2)” value was 0.00454. For CCTCTGC, the “uncleaved DNA left (log2)” value was -0.153. GGGTATC was tested, and the “uncleaved DNA left (log2)” value was 0.0432. For ATAACAT, the “uncleaved DNA left (log2)” value was -0.016. In the case of CTCGTTA, the “uncleaved DNA left (log2)” value is reported as 0.0443. With ATACGTC the “uncleaved DNA left (log2)” value was 0.0969. In the case of TCCTCGG, the “uncleaved DNA left (log2)” value is reported as -0.125. TCACAAA was tested, and the “uncleaved DNA left (log2)” value was 0.167. With CGTGCAA the “uncleaved DNA left (log2)” value was -0.0419. With GTAATGC the “uncleaved DNA left (log2)” value was 0.0809. In the case of TCGACGC, the “uncleaved DNA left (log2)” value is reported as -0.101. CATGGCG was tested, and the “uncleaved DNA left (log2)” value was 0.111. TGCATAC was tested, and the “uncleaved DNA left (log2)” value was 0.0744. With GCCCAAC the “uncleaved DNA left (log2)” value was -0.042. In the case of GATACAG, the “uncleaved DNA left (log2)” value is reported as -0.00322. In the case of CCAGTAT, the “uncleaved DNA left (log2)” value is reported as 0.0973. GACGCTT was tested, and the “uncleaved DNA left (log2)” value was 0.131. In the case of TCTCGTG, the “uncleaved DNA left (log2)” value is reported as 0.0354. GAAGGCG was tested, and the “uncleaved DNA left (log2)” value was 0.00478. AGGCTTA was tested, and the “uncleaved DNA left (log2)” value was 0.0228. In the case of CCTAATG, the “uncleaved DNA left (log2)” value is reported as -0.205. In the case of ATGGAGG, the “uncleaved DNA left (log2)” value is reported as 0.116. With TGGCTAG the “uncleaved DNA left (log2)” value was 0.0209. GGCGAAC was tested, and the “uncleaved DNA left (log2)” value was -0.0187. For GTTCAGT, the “uncleaved DNA left (log2)” value was 0.0361. TCGGTGC was tested, and the “uncleaved DNA left (log2)” value was 0.0693. For CAGGAAT, the “uncleaved DNA left (log2)” value was -0.00447.

Each sequence was assayed on T2, Rep nickase domain of banana bunchy top virus in the same assay as above.
T2 sequence (protein, residues 1-94, tag omitted): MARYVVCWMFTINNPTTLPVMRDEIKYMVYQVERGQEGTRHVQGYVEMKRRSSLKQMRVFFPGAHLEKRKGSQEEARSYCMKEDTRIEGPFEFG
Procedure: as §1
GCCGAGC was tested, and the “uncleaved DNA left (log2)” value was 0.0797. With GGCAAGC the “uncleaved DNA left (log2)” value was 0.0354. In the case of AGGTTTT, the “uncleaved DNA left (log2)” value is reported as -0.104. For TTGGGAC, the “uncleaved DNA left (log2)” value was 0.00902. In the case of CCGGCAT, the “uncleaved DNA left (log2)” value is reported as 0.164. With TTAAGAT the “uncleaved DNA left (log2)” value was -0.186. For CACTGGC, the “uncleaved DNA left (log2)” value was -0.0231. In the case of ATCCGAC, the “uncleaved DNA left (log2)” value is reported as -0.125. CTCTCCA was tested, and the “uncleaved DNA left (log2)” value was -0.0816. For CGTGTAC, the “uncleaved DNA left (log2)” value was 0.0356. For TACCTAG, the “uncleaved DNA left (log2)” value was 0.0885. With CCTACGG the “uncleaved DNA left (log2)” value was 0.0398. In the case of AAACGGC, the “uncleaved DNA left (log2)” value is reported as 0.145. For CCGCTGG, the “uncleaved DNA left (log2)” value was -0.114. In the case of CCTCTGC, the “uncleaved DNA left (log2)” value is reported as -0.397. In the case of GGGTATC, the “uncleaved DNA left (log2)” value is reported as 0.0514. In the case of ATAACAT, the “uncleaved DNA left (log2)” value is reported as 0.136. CTCGTTA was tested, and the “uncleaved DNA left (log2)” value was -0.181. For ATACGTC, the “uncleaved DNA left (log2)” value was 0.00203. For TCCTCGG, the “uncleaved DNA left (log2)” value was -0.156. In the case of TCACAAA, the “uncleaved DNA left (log2)” value is reported as 0.0853. CGTGCAA was tested, and the “uncleaved DNA left (log2)” value was -0.047. With GTAATGC the “uncleaved DNA left (log2)” value was 0.115. With TCGACGC the “uncleaved DNA left (log2)” value was -0.099. In the case of CATGGCG, the “uncleaved DNA left (log2)” value is reported as -0.0153. For TGCATAC, the “uncleaved DNA left (log2)” value was 0.115. GCCCAAC was tested, and the “uncleaved DNA left (log2)” value was 0.0372. With GATACAG the “uncleaved DNA left (log2)” value was 0.0119. With CCAGTAT the “uncleaved DNA left (log2)” value was -0.0214. In the case of GACGCTT, the “uncleaved DNA left (log2)” value is reported as -0.0423. TCTCGTG was tested, and the “uncleaved DNA left (log2)” value was -0.245. With GAAGGCG the “uncleaved DNA left (log2)” value was 0.0191. In the case of AGGCTTA, the “uncleaved DNA left (log2)” value is reported as -0.0176. In the case of CCTAATG, the “uncleaved DNA left (log2)” value is reported as -0.0565. ATGGAGG was tested, and the “uncleaved DNA left (log2)” value was -0.0305. In the case of TGGCTAG, the “uncleaved DNA left (log2)” value is reported as 0.0205. With GGCGAAC the “uncleaved DNA left (log2)” value was 0.0463. GTTCAGT was tested, and the “uncleaved DNA left (log2)” value was 0.0701. In the case of TCGGTGC, the “uncleaved DNA left (log2)” value is reported as -0.0411. In the case of CAGGAAT, the “uncleaved DNA left (log2)” value is reported as 0.185.

What follows are sequences tested on T3, Rep nickase domain of cabbage leaf curl virus in the same assay as above.
T3 sequence (protein, residues 1-116, tag omitted): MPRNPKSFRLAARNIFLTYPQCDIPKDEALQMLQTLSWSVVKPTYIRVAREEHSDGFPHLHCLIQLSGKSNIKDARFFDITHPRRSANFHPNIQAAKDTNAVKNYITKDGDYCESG
Procedure: as §1
With GCCGAGC the “uncleaved DNA left (log2)” value was 0.506. In the case of GGCAAGC, the “uncleaved DNA left (log2)” value is reported as 0.55. For AGGTTTT, the “uncleaved DNA left (log2)” value was 0.139. In the case of TTGGGAC, the “uncleaved DNA left (log2)” value is reported as 0.804. For CCGGCAT, the “uncleaved DNA left (log2)” value was 0.536. For TTAAGAT, the “uncleaved DNA left (log2)” value was -2.04. CACTGGC was tested, and the “uncleaved DNA left (log2)” value was -0.297. In the case of ATCCGAC, the “uncleaved DNA left (log2)” value is reported as -0.036. With CTCTCCA the “uncleaved DNA left (log2)” value was -0.116. With CGTGTAC the “uncleaved DNA left (log2)” value was 0.157. For TACCTAG, the “uncleaved DNA left (log2)” value was -0.841. For CCTACGG, the “uncleaved DNA left (log2)” value was 0.443. For AAACGGC, the “uncleaved DNA left (log2)” value was 0.00125. For CCGCTGG, the “uncleaved DNA left (log2)” value was -0.124. With CCTCTGC the “uncleaved DNA left (log2)” value was -0.617. GGGTATC was tested, and the “uncleaved DNA left (log2)” value was 0.739. For ATAACAT, the “uncleaved DNA left (log2)” value was -0.307. For CTCGTTA, the “uncleaved DNA left (log2)” value was -0.322. In the case of ATACGTC, the “uncleaved DNA left (log2)” value is reported as -0.0979. In the case of TCCTCGG, the “uncleaved DNA left (log2)” value is reported as 0.442. With TCACAAA the “uncleaved DNA left (log2)” value was 0.205. CGTGCAA was tested, and the “uncleaved DNA left (log2)” value was 0.0751. For GTAATGC, the “uncleaved DNA left (log2)” value was 0.0545. TCGACGC was tested, and the “uncleaved DNA left (log2)” value was -0.133. In the case of CATGGCG, the “uncleaved DNA left (log2)” value is reported as -0.296. In the case of TGCATAC, the “uncleaved DNA left (log2)” value is reported as 0.283. In the case of GCCCAAC, the “uncleaved DNA left (log2)” value is reported as -0.052. GATACAG was tested, and the “uncleaved DNA left (log2)” value was -0.158. With CCAGTAT the “uncleaved DNA left (log2)” value was 0.0443. In the case of GACGCTT, the “uncleaved DNA left (log2)” value is reported as 0.383. For TCTCGTG, the “uncleaved DNA left (log2)” value was -0.652. GAAGGCG was tested, and the “uncleaved DNA left (log2)” value was -0.638. With AGGCTTA the “uncleaved DNA left (log2)” value was 0.0641. For CCTAATG, the “uncleaved DNA left (log2)” value was -0.742. In the case of ATGGAGG, the “uncleaved DNA left (log2)” value is reported as 0.101. With TGGCTAG the “uncleaved DNA left (log2)” value was -0.384. GGCGAAC was tested, and the “uncleaved DNA left (log2)” value was 0.378. GTTCAGT was tested, and the “uncleaved DNA left (log2)” value was 0.32. For TCGGTGC, the “uncleaved DNA left (log2)” value was -0.312. CAGGAAT was tested, and the “uncleaved DNA left (log2)” value was 0.308.
